Among all 150,000 compounds or so, about 540 (0.36%) showed an effect of 50% or more. The list shows a part of the results.

The experiment has as its system Plasmodium falciparum. Put plainly: Primary screen in NF54 nanoGlo assay, in single point, at 2uM, 72h; a lower Z score goes with more inhibition. Format: functional, Erythrocyte. The conditions noted are these: timepoint 72 hour.
As a reminder, the % Inhibition is the drop in the measured response relative to a control, in per cent. On to `Cc1nnc2n1CCN(C(=O)Cc1cccs1)[C@H]2C(=O)N1CCCC1`, for which the “% Inhibition” value is on record as -11% and the Z score was found to be 1.23.

On to `CCCc1c(C(C)C)nc(N)c(C#N)c1-c1cn(CCO)nc1C`, for which the “% Inhibition” value is recorded as -5% and the Z score came out at 0.83.

Take `O=C(NCCc1ccccn1)c1cc2n(n1)CCN(Cc1c(Cl)cccc1Cl)C2=O`: the “% Inhibition” value came out at 14% and the Z score was -1.4.

Take `Cc1cc(C)c(C(=O)NCc2ccc3c(c2)CN(C(=O)c2oc(C)cc2C)C3)o1`: the “% Inhibition” value is -8% and the Z score is reported as 1.35.

As for `CCOC(=O)Cn1nc(C)cc1NC(=O)COC[C@H]1CCCO1`, the “% Inhibition” value is recorded as -6% and the Z score worked out at 0.98.

On to `COc1cc(C)sc1C(=O)N(C)C[C@H]1CCCOC1`, for which the “% Inhibition” value is -12% and the Z score stood at 1.53.

Turning to `Cc1ccnc(NC(=O)c2cscc2C)n1`, the “% Inhibition” value is recorded as -6% and the Z score came to 0.68.

For the compound `O=C(N[C@H]1CCN(c2ccc3nncn3n2)C1)OC1CN(Cc2ccccc2)C1`, the “% Inhibition” value was -9% and the Z score came to 1.46.

Regarding `CC(C)CCN(C(=O)COc1ccc(CC(N)=O)cc1)C1CC1`, the “% Inhibition” value is recorded as -5% and the Z score came out at 0.78.

Turning to `C[C@@H](Cc1cccs1)C(=O)N1CCCC1`, the “% Inhibition” value is reported as 0% and the Z score amounted to 0.04.

On to `CCc1nnc2c(S(=O)(=O)N(Cc3cccc(Cl)c3)c3ccccc3)cccn12`, for which the “% Inhibition” value was -17% and the Z score came out at 2.2.

Turning to `COc1ccc2c(c1)[C@@H](NC(=O)c1c3c(nn1C)CCCC3)CC(C)(C)O2`, the “% Inhibition” value is 4% and the Z score was -0.82.

As to `Cc1ccc(F)c(Cn2nc(C)c([C@@H]3CCCC(=O)N3)c2C)c1`, the “% Inhibition” value is given as 1% and the Z score is listed as -0.12.

`CN1CCN(C(=O)CN2C(=O)COc3ccccc32)CC1`: the “% Inhibition” value was -13% and the Z score came out at 2.24.

As to `CS(=O)(=O)Cc1noc(NS(=O)(=O)c2csc3ccc(Cl)cc23)n1`, the “% Inhibition” value is listed as -7% and the Z score stood at 0.6.

In the case of `COc1ccc(CN2C(=O)COC[C@H]2C(=O)Nc2ccc(C(C)C)cc2)cc1OC`, the “% Inhibition” value is on record as -3% and the Z score amounted to 0.32.

Take `COC(=O)Oc1cncc(C(=O)ON2C(=O)CCC2=O)c1`: the “% Inhibition” value is 5% and the Z score is -0.98.

Consider `c1csc(CCN2CCC(n3ccnn3)CC2)c1`, for which the “% Inhibition” value was -12% and the Z score came to 1.27.

`Cc1c(NC(=O)NCCC2CC3CCC2C3)c(=O)n(-c2ccccc2)n1C` (configuration not stated): the “% Inhibition” value is recorded as -5% and the Z score turned out to be 1.13.

Regarding `Cc1nnc(COc2c(F)cc(F)cc2Br)n1C1CC1`, the “% Inhibition” value turned out to be 4% and the Z score is reported as -0.44.

In the case of `O=C(NC[C@H]1CCC[C@@H](CO)C1)c1ncoc1C(F)(F)F`, the “% Inhibition” value is on record as -7% and the Z score is recorded as 0.88.

In the case of `CC(C)c1cc(C(=O)N2C[C@H]3CN(Cc4ccccc4)C[C@H]3C2)n[nH]1`, the “% Inhibition” value is listed as -6% and the Z score was determined as 0.81.

With `CCCCN(CC(N)=O)S(=O)(=O)N1CC(C)OC(C)C1` (configuration not stated), the “% Inhibition” value is recorded as -1% and the Z score is given as 0.21.

As for `Cc1cc(C)cc(CCC(=O)N2C[C@@H](CN(C)C)[C@@H](CO)C2)c1`, the “% Inhibition” value is listed as -11% and the Z score worked out at 1.09.

For `CN(C)S(=O)(=O)N1CCC[C@H](S(=O)(=O)N2CCc3ccccc32)C1`, the “% Inhibition” value was found to be 2% and the Z score is on record as -0.25.

As to `Cc1cccnc1-n1nc(C2CC2)nc1C(=O)NCC(C)C`, the “% Inhibition” value is listed as -14% and the Z score is 1.93.

Consider `CC1=C(Cc2cn(CCn3cccn3)nn2)C(C)(C)CCC1`, for which the “% Inhibition” value turned out to be 7% and the Z score is recorded as -1.08.

`CC(C)NC(=O)Nc1nc2c(s1)CN(C(=O)c1cccn(C)c1=O)CC2`: the “% Inhibition” value is listed as -4% and the Z score is listed as 0.6.

As to `O=C(c1ccc2cc[nH]c2c1)N1CCNCC1`, the “% Inhibition” value is reported as -7% and the Z score was found to be 0.91.

`O=C(c1ccccc1-c1nc[nH]n1)N1CC(c2cccnc2)C1`: the “% Inhibition” value is -5% and the Z score is 1.02.

As for `CC1(C)CN(CC(=O)N2CCCC2)c2ccc(S(=O)(=O)NCc3ccc4c(c3)OCO4)cc21`, the “% Inhibition” value is listed as -9% and the Z score is 1.3.

As to `CCN(C(=O)c1ccc(Cl)cc1OC)c1ccncc1`, the “% Inhibition” value is -7% and the Z score is recorded as 0.98.

In the case of `Cc1cc(OCC(=O)NC2CCC(C)CC2)nnc1C` (configuration not stated), the “% Inhibition” value was found to be 2% and the Z score was -0.32.

For the compound `CCc1nc([C@@H]2C[C@@H](O)CN2C(=O)OCC2CCCCC2)n[nH]1`, the “% Inhibition” value is given as -6% and the Z score came to 1.06.

`CCC(F)(F)C(C)(C)CS(=O)(=O)N1CCC2C(CCC(=O)N2C2CC2)C1` (configuration not stated): the “% Inhibition” value was -13% and the Z score is reported as 2.02.

As to `COc1ccc(S(=O)(=O)NC[C@H]2O[C@@H](CO)[C@@H](O)[C@H]2N2CCC(C)CC2)cc1`, the “% Inhibition” value was 13% and the Z score was -1.49.

As to `COc1ccc([C@@H]2NC(=O)c3c(nc4c(cnn4-c4ccccc4)c3C)N2)cc1`, the “% Inhibition” value is -38% and the Z score turned out to be 4.45.

Consider `O=C(Nc1cc(S(=O)(=O)N2CCCC2)ccc1Cl)c1cc2c(s1)CCC2`, for which the “% Inhibition” value is recorded as 8% and the Z score is -0.99.

For `Cc1csc(CN2C(=O)N[C@]3(CC(C)(C)OC3(C)C)C2=O)n1`, the “% Inhibition” value is given as -2% and the Z score is listed as 0.41.

For `CCOc1ccc(C(=O)N2CCN(c3cc(=O)n(C(C)C)c(=O)n3C(C)C)CC2)cc1OCC`, the “% Inhibition” value is listed as -11% and the Z score was found to be 1.79.

Consider `COCCN1C[C@@H](Cc2cccc3ccccc23)CC1=O`, for which the “% Inhibition” value is given as -7% and the Z score stood at 1.39.

Values taken from ChEMBL document CHEMBL4888484, “Replenishing the malaria drug discovery pipeline: Screening and hit evaluation of the MMV Hit Generation Library 1 (HGL1) against asexual blood stage Plasmodium falciparum ,using a nano luciferase reporter read-out” (2022).
